Test results as given in the supplement of paper PMC4967469.
pIC50: −log10 of the molar value. The IC50 comes from the fitted curve, where viability falls to half of the control; a limit (>, <) means that the fit lies beyond the doses tested. AUC sums up the same curve from the lowest dose to the 256-fold higher top dose; it is 1 without any effect and falls as sensitivity rises. For some assays here: A top dose marked as inferred comes from the curve model; the source does not state it.

Key:
Test in all cases: Viability of human cancer cell lines after 72 h of drug (GDSC screen)
[1] = compound: C=CCNC1=C2C[C@@H](C)C[C@H](OC)[C@H](O)[C@@H](C)/C=C(\C)[C@H](OC(N)=O)[C@@H](OC)/C=C\C=C(/C)C(=O)NC(=CC1=O)C2=O [17-AAG]; conditions: top dose 1 µM
Procedure: (§1)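 Human cancer cell lines in 384-well plates, medium with 10% serum, drug for 72 h over a 256-fold dose range (nine 2-fold or five 4-fold steps up to the top dose). Adherent lines were fixed and stained with the nucleic acid dye Syto60, suspension lines read with resazurin; signal relative to control wells, capped at 0 and 100%. One two-parameter sigmoid per drug and line, fitted in a mixed model over all curves with the slope shared within a line.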

[2] = compound: CCc1cc(-c2n[nH]c(C)c2-c2ccc3c(c2)OCCO3)c(O)cc1O [CCT018159]; conditions: top dose 10 µM; top dose inferred
Procedure: as §1

[3] = compound: CN(C)Cc1cccc(N=C(c2ccccc2)c2c(O)[nH]c3cc(C(=O)N(C)C)ccc23)c1 [BIX02189]; conditions: top dose 20 µM; top dose inferred
Procedure: as §1

[4] = compound: COC(=O)CNC(=O)C(=O)OC [Dimethyloxalylglycine]; conditions: top dose 4000 µM; top dose inferred
Procedure: as §1

[5] = compound: COc1cccc2c1C(=O)c1c(O)c3c(c(O)c1C2=O)C[C@@](O)(C(=O)CO)C[C@@H]3O[C@H]1C[C@H](N)[C@H](O)[C@H](C)O1 [Doxorubicin]; conditions: top dose 1.024 µM
Procedure: as §1

[6] = compound: COc1cccc2cc(-c3nc([C@H]4CC[C@H](C(=O)O)CC4)n4ncnc(N)c34)[nH]c12 [OSI-027]; conditions: top dose 20 µM
Procedure: as §1

[7] = compound: CS(=O)(=O)c1ccc(C(=O)Nc2ccc(Cl)c(-c3ccccn3)c2)c(Cl)c1 [Vismodegib]; conditions: top dose 10 µM; top dose inferred
Procedure: as §1

[8] = compound: Cc1cnc(Nc2ccc(F)cc2Cl)nc1-c1c[nH]c(C(=O)N[C@H](CO)c2cccc(Cl)c2)c1 [VX-11e]; conditions: top dose 5.12 µM; top dose inferred
Procedure: as §1

[9] = compound: Cc1cnc(Nc2ccc(OCCN3CCCC3)cc2)nc1Nc1cccc(S(=O)(=O)NC(C)(C)C)c1 [TG101348]; conditions: top dose 10.24 µM
Procedure: as §1

[10] = compound: O=C(c1ccc(C(=O)N2CCC(N3CCCC3)CC2)c(Nc2ccccc2)c1)N1CCC(N2CCCC2)CC1 [UNC1215]; conditions: top dose 1 µM; top dose inferred
Procedure: as §1

Row | Cell Line | AUC [1] | pIC50 [1] | AUC [2] | pIC50 [2] | AUC [3] | pIC50 [3] | AUC [4] | pIC50 [4] | AUC [5] | pIC50 [5] | AUC [6] | pIC50 [6] | AUC [7] | pIC50 [7] | AUC [8] | pIC50 [8] | AUC [9] | pIC50 [9] | AUC [10] | pIC50 [10]
1 | 42-MG-BA (glioma, adherent) | 0.542 | 7.09 | 0.876 | < 5.00 | 0.945 | < 4.70 | 0.775 | 2.77 | 0.741 | 6.48 | 0.792 | 5.01 | 0.983 | < 5.00 | 0.983 | < 5.29 | 0.807 | 5.24 | 0.983 | < 6.00
2 | NCI-H2227 (small cell lung carcinoma, semi-adherent) | 0.882 | < 6.00 | 0.957 | < 5.00 | 0.981 | < 4.70 | 0.808 | 2.62 | 0.931 | < 5.99 | 0.531 | 5.81 | 0.986 | < 5.00 | 0.986 | < 5.29 | 0.667 | 5.70 | 0.975 | < 6.00
3 | KNS-81-FD (glioma, adherent) | 0.665 | 6.67 | 0.869 | < 5.00 | 0.965 | < 4.70 | 0.681 | 3.01 | 0.628 | 6.79 | 0.861 | < 4.70 | 0.955 | < 5.00 | 0.978 | < 5.29 | 0.96 | < 4.99 | 0.978 | < 6.00
4 | Caov-4 (ovary, adherent) | 0.979 | < 6.00 | 0.964 | < 5.00 | 0.93 | < 4.70 | 0.915 | < 2.40 | 0.683 | 6.58 | 0.763 | 4.97 | 0.98 | < 5.00 | 0.853 | < 5.29 | 0.845 | < 4.99 | 0.971 | < 6.00
5 | SU-DHL-16 (B-cell lymphoma, suspension) | 0.824 | 6.41 | 0.983 | < 5.00 | 0.788 | 5.20 | 0.405 | 3.83 | 0.549 | 7.08 | 0.009 | > 7.11 | 0.989 | < 5.00 | 0.865 | 5.58 | 0.521 | 6.14 | 0.996 | < 6.00
6 | NCI-H526 (small cell lung carcinoma, suspension) | 0.963 | < 6.00 | 0.925 | < 5.00 | 0.942 | < 4.70 | 0.618 | 3.28 | 0.455 | 7.31 | 0.377 | 6.23 | 0.971 | < 5.00 | 0.976 | < 5.29 | 0.692 | 5.67 | 0.988 | < 6.00
7 | KP-3 (pancreas, adherent) | 0.727 | 6.50 | 0.861 | < 5.00 | 0.913 | < 4.70 | 0.492 | 3.63 | 0.71 | 6.55 | 0.702 | 5.28 | 0.984 | < 5.00 | 0.946 | < 5.29 | 0.781 | 5.29 | 0.982 | < 6.00
8 | NCI-SNU-1 (stomach, suspension) | 0.92 | < 6.00 | 0.984 | < 5.00 | 0.86 | 4.75 | 0.894 | < 2.40 | 0.504 | 7.18 | 0.635 | 5.52 | 0.981 | < 5.00 | 0.791 | 5.62 | 0.733 | 5.52 | 0.978 | < 6.00
9 | SW1417 (large intestine, adherent) | 0.89 | < 6.00 | 0.924 | < 5.00 | 0.965 | < 4.70 | 0.907 | < 2.40 | 0.733 | 6.47 | 0.902 | < 4.70 | 0.984 | < 5.00 | 0.843 | 5.34 | 0.865 | < 4.99 | 0.98 | < 6.00
10 | ME-180 (cervix, adherent) | 0.571 | 7.01 | 0.885 | < 5.00 | 0.904 | < 4.70 | 0.491 | 3.63 | 0.624 | 6.84 | 0.195 | 6.83 | 0.934 | < 5.00 | 0.969 | < 5.29 | 0.754 | 5.45 | 0.974 | < 6.00
11 | HAL-01 (lymphoblastic leukaemia, suspension) | 0.984 | < 6.00 | 0.713 | 5.64 | 0.86 | 4.86 | 0.381 | 3.91 | 0.721 | 6.61 | 0.091 | > 7.11 | 0.929 | < 5.00 | 0.929 | < 5.29 | 0.647 | 5.81 | 0.977 | < 6.00
12 | Ca-Ski (cervix, adherent) | 0.689 | 6.65 | 0.843 | 5.08 | 0.902 | < 4.70 | 0.459 | 3.72 | 0.458 | 7.31 | 0.195 | 6.87 | 0.962 | < 5.00 | 0.961 | < 5.29 | 0.657 | 5.73 | 0.978 | < 6.00
13 | YKG-1 (glioma, adherent) | 0.502 | 7.20 | 0.826 | 5.21 | 0.983 | < 4.70 | 0.639 | 3.22 | 0.353 | 7.61 | 0.394 | 6.19 | 0.959 | < 5.00 | 0.968 | < 5.29 | 0.885 | < 4.99 | 0.985 | < 6.00
14 | CA46 (Burkitt lymphoma, suspension) | 0.974 | < 6.00 | 0.964 | < 5.00 | 0.833 | 4.84 | 0.361 | 4.00 | 0.636 | 6.80 | 0.16 | 6.99 | 0.983 | < 5.00 | 0.926 | < 5.29 | 0.695 | 5.63 | 0.97 | < 6.00
15 | TGBC11TKB (stomach, adherent) | 0.669 | 6.76 | 0.964 | < 5.00 | 0.977 | < 4.70 | 0.905 | < 2.40 | 0.948 | < 5.99 | 0.959 | < 4.70 | 0.989 | < 5.00 | 0.95 | < 5.29 | 0.983 | < 4.99 | 0.989 | < 6.00
16 | MPP-89 (mesothelioma, adherent) | 0.709 | 6.53 | 0.961 | < 5.00 | 0.807 | 4.85 | 0.667 | 3.07 | 0.696 | 6.56 | 0.794 | 4.90 | 0.964 | < 5.00 | 0.943 | < 5.29 | 0.826 | 5.05 | 0.976 | < 6.00
17 | COLO-684 (endometrium, suspension) | 0.864 | < 6.00 | 0.846 | 5.06 | 0.959 | < 4.70 | 0.616 | 3.26 | 0.697 | 6.61 | 0.226 | 6.75 | 0.957 | < 5.00 | 0.92 | < 5.29 | 0.927 | < 4.99 | 0.976 | < 6.00
18 | NCI-H727 (lung carcinoid, adherent) | 0.752 | 6.26 | 0.953 | < 5.00 | 0.963 | < 4.70 | 0.775 | 2.55 | 0.415 | 7.49 | 0.663 | 5.32 | 0.964 | < 5.00 | 0.744 | 5.58 | 0.865 | < 4.99 | 0.965 | < 6.00
19 | NCI-H1092 (small cell lung carcinoma, suspension) | 0.984 | < 6.00 | 0.912 | < 5.00 | 0.954 | < 4.70 | 0.719 | 2.98 | 0.833 | 6.17 | 0.717 | 5.28 | 0.987 | < 5.00 | 0.99 | < 5.29 | 0.942 | < 4.99 | 0.983 | < 6.00
20 | MHH-PREB-1 (B-cell leukaemia, suspension) | 0.989 | < 6.00 | 0.894 | 5.01 | 0.7 | 5.37 | 0.395 | 3.88 | 0.698 | 6.67 | 0.143 | 6.94 | 0.985 | < 5.00 | 0.951 | < 5.29 | 0.898 | < 4.99 | 0.978 | < 6.00
21 | CTB-1 (B-cell lymphoma, suspension) | 0.91 | < 6.00 | 0.866 | < 5.00 | 0.882 | < 4.70 | 0.344 | 4.11 | 0.498 | 7.20 | 0.133 | > 7.11 | 0.952 | < 5.00 | 0.949 | < 5.29 | 0.635 | 5.76 | 0.964 | < 6.00
22 | HCC1187 (breast, suspension) | 0.986 | < 6.00 | 0.877 | 5.03 | 0.962 | < 4.70 | 0.901 | < 2.40 | 0.846 | 6.16 | 0.654 | 5.49 | 0.984 | < 5.00 | 0.979 | < 5.29 | 0.84 | 5.18 | 0.983 | < 6.00
23 | GDM-1 (acute myeloid leukaemia, suspension) | 0.95 | < 6.00 | 0.91 | < 5.00 | 0.325 | 6.38 | 0.381 | – | 0.646 | – | 0.085 | > 7.11 | 0.987 | < 5.00 | 0.856 | 5.41 | 0.383 | 6.51 | 0.984 | < 6.00
24 | KON (head and neck, adherent) | 0.305 | 7.75 | 0.838 | 5.18 | 0.987 | < 4.70 | 0.483 | 3.65 | 0.409 | 7.44 | 0.961 | < 4.70 | 0.977 | < 5.00 | 0.984 | < 5.29 | 0.942 | < 4.99 | 0.982 | < 6.00
25 | PA-TU-8902 (pancreas, adherent) | 0.932 | < 6.00 | 0.927 | < 5.00 | 0.959 | < 4.70 | 0.58 | 3.37 | 0.705 | 6.57 | 0.252 | 6.68 | 0.982 | < 5.00 | 0.866 | < 5.29 | 0.91 | < 4.99 | 0.981 | < 6.00
26 | Detroit562 (head and neck, adherent) | 0.467 | 7.29 | 0.847 | 5.16 | 0.988 | < 4.70 | 0.613 | 3.30 | 0.699 | 6.65 | 0.936 | < 4.70 | 0.981 | < 5.00 | 0.985 | < 5.29 | 0.952 | < 4.99 | 0.987 | < 6.00
